# The other results are listed elsewhere or left out. The main result of the screen is listed elsewhere. These columns were measured beside it and carry no call.
# Assay: DTT-dependent H2O2 generation by redox cyclers, dose response, artefact control for MLSCN library redox annotation, biochemical, 10-point concentration response, NIH library profiling (AID 1234)
# Details: DTT-dependent redox cycling H2O2, phenol red-HRP absorbance, at 50 µM, stronger effect = higher value
row,Compound,activation [%]
1,Cc1cccnc1NC1=NCC(C)S1 (configuration not stated),-1.49
2,CCn1nc(-c2ccccc2)nc2c(=O)n(C)c(=O)nc1-2,113
3,CCCCn1c(NC(=O)c2ccco2)c(C(=O)OCC)c2nc3ccccc3nc21,7.8
4,O=C1C(=O)c2ccccc2-c2ccccc21,110
5,CCCCn1c(NS(=O)(=O)c2ccccc2)c(C(=O)OCC)c2nc3ccccc3nc21,122
6,Cc1nc2c(=O)n(C)c(=O)nc-2n(C)n1,115
7,CCn1nc(/C=C/c2ccccc2)nc2c(=O)n(C)c(=O)nc1-2,0.26

# Source: PubChem BioAssay AID1234 (University of Pittsburgh Molecular Library Screening Center, 2008)
